Laboratory results as given in the RNAGym collection of RNA variant scans (doi:10.1093/nar/gkz1192).
The source gives no read counts; variants with many changes may rest on few reads.

B1: CPEB3 Ribozyme (parent)
chain: UAACAGGGGGCCACAGCAGAAGCGUUCACGUCGCAGCCCCUGUCAGAUUCUGGUGAAUCUGCGAAUUCUGCUGUAUAUCUC

Variants of: B1
Assay: self-cleavage, relative activity (ratio to wild type); higher = more cleavage; in vitro, sequencing
In short: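 For each CPEB3 ribozyme variant, relative activity is its cleaved/total read fraction divided by the unmutated ribozyme's. Barcoded error-prone PCR libraries were transcribed by T7 RNA polymerase (5 hours, 37°C) and held in DNase I for 15 min before an EDTA stop, with cleavage occurring throughout. Template-switching reverse transcription and Illumina sequencing were used to read the RNAs. A 5-read minimum applied, and results are the mean of three batches.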

Q: With UAACAGGGGGGCACAGCAUAAGCGCUCACGUCGCGGCCCCUGUCGGAUUCUGGUGAAUCUGCGAAUUCUGCUGUAUAUCUC [C11G G19U U25C A35G A45G] as the variant, how does the self-cleavage read?
A: 0.05

Q: With UAACAGGGGGGCACAGCAGAAGCGUUCACGCCGCAGCCCCUGUCAGAUUCUGGUGAAUCUGCGUAUUCCGCUGUAUAUCUC [C11G U31C A64U U69C] as the variant, how does the self-cleavage read?
A: 0.16

Q: With UAACAGGGGGGCACAGCAGAAGCGUCCACGCCGCAGCCCCUGACAGAUUCCGGUGAAUCUGCGAAUUCUGCCGUAUAUCCC [C11G U26C U31C U43A U51C U72C U80C] as the variant, how does the self-cleavage read?
A: 0.07

Q: Which self-cleavage does the source give for UAACAGGGGGGCACAGUAGAAGCGCUCACGUCGCAGCCCUUGUCAGAUCCUGGUGAAUCUGCGAAUUCUGCUGUAUACCUC [C11G C17U U25C C40U U49C U78C] here?
A: 0.04

Q: For UAACAGGGGGGCACAGCAGAAGCGUUCACGUCGCAGCCCCCGUCAGAUUCUGGUGAAUCUGCGAAUUCAGCUGUAUAUCUC [C11G U41C U69A], which self-cleavage is on record?
A: 0.25

Q: Which self-cleavage does the source give for UAACAGGGGGGCACAGCAGAAGCGCUCACGUCGCAGCCCCUGUCAGAUUCUGGUGAAUCAGCGAAUUCUGCUGUAUAUCUC [C11G U25C U60A] here?
A: 0.32

Q: For UAACAGGGGGGCACAGCAGAAGCGUCCACGUCGCAGCCCCUGACAGGUUCUGGAGAAUCUGCGAAUUCUGCUGUAUAUCCC [C11G U26C U43A A47G U54A U80C], which self-cleavage is on record?
A: 0.06

Q: Which self-cleavage does the source give for UAACAGGGGGGCACAGCAGAAGCGUUCACGUCGCAGCCCCAGUCAGAUUCUGGUGAAUCUGCGAAUUCUGCCGUAUAUCUC [C11G U41A U72C] here?
A: 0.07

Q: For UAACAGGGGGGCACAGCAGAAGCGUUCACGUCGCAGCCCCUGUCAUAUUCUGGAGAAUCAGCGAAUUCUGCUGUAUAUCUC [C11G G46U U54A U60A], which self-cleavage is on record?
A: 0.07

Q: For UAACAGGGGGGCACAGCAGAAGCGCUCACGUCGCAGCCCCUGUCAGAUUCUGGUGGAUCCGCGAAUUCUGCUGUAUUUCUC [C11G U25C A56G U60C A77U], which self-cleavage is on record?
A: 0.05

Q: With UAACAGGGGGGCACAGCAGAAGCGUCCACGUCGCAGCCCCUGUCCGAUUCUGGUGAAUCUGCGAAUUCUGCUGUAUAUCUC [C11G U26C A45C] as the variant, how does the self-cleavage read?
A: 0.31

Q: For UAACAGGGGGGCACAGCAGAAGUGUUCACGUCCCAGCCCCUGUCAGAUUCUGGUGAAUCUGGGAGUUCUGCUGUAUAUCUC [C11G C23U G33C C62G A65G], which self-cleavage is on record?
A: 0.03

Q: With UAACAGGGGGGCACAGCAGAAGGGUUCACGUCGCAGCCCCUGUCAGAUUCUGGUGAAUCUGCGGAUUCUGCUGUAUAUCUC [C11G C23G A64G] as the variant, how does the self-cleavage read?
A: 0.05

Q: Which self-cleavage does the source give for UAACAGGGGGGCACAGCAGAAGCGUUCACGCCGCAGCCCCUGUCAGAUUCUGGUGAAUCUGCGAAUUCUGCUGUAUGUCUC [C11G U31C A77G] here?
A: 0.24

Q: Which self-cleavage does the source give for UAACAGGGGGGCACAGCAGAAGCGUUCACGUCGCAGCCCCUGUCAGGUUCUGGUGAAUCUGCGAAUUCUGCUGUAUAUCCC [C11G A47G U80C] here?
A: 0.46

Q: Which self-cleavage does the source give for UAACAGGGGGGCACAACAGAAGCGUUCACGUCGCAGCCCCUGUCAGAUUCUGGUGAAUCCGCGAAUUCUGCUGUAUAUCUC [C11G G16A U60C] here?
A: 0.05

Q: For UAACAGGGGGGCACAGCAGAAGCGUUCACGUAGCAGUCCCUGUCGGAUUCUGGUGGAUCUGCGAAUUCUGCUGUAUAUCUC [C11G C32A C37U A45G A56G], which self-cleavage is on record?
A: 0.18

Q: For UAACAGGGGGGCACAGCAGAAGCGUUCACGUCGCAGCCCCCGUCAGAUUCAGGUGAACCUGCGAAUUCUGCUGUAUAUCCC [C11G U41C U51A U58C U80C], which self-cleavage is on record?
A: 0.15

Q: With UAACAGGGGGGCACAGCAGAAGCGUUCACGUCGCAGCCCCUGUCAGGUUCUGGUGAAUCUGCGAAUUCUGCUGUAUGUCUC [C11G A47G A77G] as the variant, how does the self-cleavage read?
A: 0.61

Q: With UAACAGGGGGGCACAGCAGAAGCGUUCACGUCGCAGCCCCUGUCAGAUUCUGGUGGAUCCGCGAAUUCAGCUGUAUAUCUC [C11G A56G U60C U69A] as the variant, how does the self-cleavage read?
A: 0.1

Q: Which self-cleavage does the source give for UAACAGGGGGGCACAGCAGAAGCGUCCACGUCGCAGCCCCUGUCAGAUUCAGGUGAAUCUGCGAAUUCUGCUGUAUAUCUC [C11G U26C U51A] here?
A: 0.38

Q: With UAACAGGGGGGCACAGCAGAAGCGUUCACGACGCUGCCCCAGACAGAUUCUGGUGAAUCUGCGAAUUCUGCUGUAUAUCUU [C11G U31A A35U U41A U43A C81U] as the variant, how does the self-cleavage read?
A: 0.06

Q: Which self-cleavage does the source give for UAACAGGGGGGCACAGCAUAAGCGUUCACGUCGCAGCCCCUGUCAGAUUCUGGUGAAUCCGCGAAUUCUGCAGUAUAUCUC [C11G G19U U60C U72A] here?
A: 0.07

Q: With UAACAGGGGGGCACAGCAGAAGCGCUCACGUCACAGCCCCAGUCAGAUUCUGGUGAAUCUGCGAAUUCUGCUGUAUAUCUC [C11G U25C G33A U41A] as the variant, how does the self-cleavage read?
A: 0.05

Q: With UAACAGGGGGGCACAGCAGAAGCGUACACGUCGCAGCCCCCGUCUGAUUCUGGUGAAUCCGCGAAUUCUGCUAUAUAUCUC [C11G U26A U41C A45U U60C G73A] as the variant, how does the self-cleavage read?
A: 0.06

Q: Which self-cleavage does the source give for UAACAGGGGGGCACAGCAGAAGCGUACACGUCGCAGCCCCUGUCGGAUUCUGGUGAGUCUGCGAAUUCUGCUGUAUAUCUC [C11G U26A A45G A57G] here?
A: 0.07

Q: With UAACAGGGGGGCACAGCAGAAGCAUUCACGUCGCAGCCCCUGUCAGAUUCUGGUGAAUCUGCGAAUUCUGCCGUAUAUCUC [C11G G24A U72C] as the variant, how does the self-cleavage read?
A: 0

Q: Which self-cleavage does the source give for UAACAGGGGGGCACAGCAGAAGCGCUCACGUCGCAGCCCCAGUCAGAUUCUGGUGGAUCUGCAAAUUCUGCUGUAUAUCUC [C11G U25C U41A A56G G63A] here?
A: 0.08

Q: For UAACAGGGGGGCACAGCAGAAGCGUUCACGUCACAGCCCCCGUCAGAUUCUGGUGAAUCUGCGAAUUCUGCUGUAUACCUC [C11G G33A U41C U78C], which self-cleavage is on record?
A: 0.14

Q: For UAACAGGGGGGCACAGCAGAAGCGUUCACGUCGCAGCCCAUGUCGGAUUCUGGUGAAUCUGCAAUUUCUGCUGUAUAUCUC [C11G C40A A45G G63A A65U], which self-cleavage is on record?
A: 0.07

Q: For UAACAGGGGGGCACAGCAGAAGCGUACACGUCGCAUCCCCCGUCAGAUUCUGGUGAAUCUGCGAAUUCUGCCGUACAUCUC [C11G U26A G36U U41C U72C U76C], which self-cleavage is on record?
A: 0.07

Q: For UAACAGGGGGGCACAGCAGAAGCGUUCACGACGCAGCCCCUGUCAGAUUCAGGUGAAUCUGCGAAUUCUGCUGUAUGCCUC [C11G U31A U51A A77G U78C], which self-cleavage is on record?
A: 0.05

Q: With UAACAGGGGGGCACAGCAGAAGCGUUCACGUCGCAGCCCCUGUCAGGUUCUGGUGAAUCUGCGAAUUCUGCCGCAUAUCCC [C11G A47G U72C U74C U80C] as the variant, how does the self-cleavage read?
A: 0.88

Q: For UAACAGGGGGGCACAGCAGAAGCGUACACGUCGCGGCCCCUGUCAGGUUCUGGCGAGUCUGCGAAUUCUGCCGUAUAUCUC [C11G U26A A35G A47G U54C A57G U72C], which self-cleavage is on record?
A: 0.04
